This is an account of results in patent publication US8501241B1, “Treating cancer with a whole, leech saliva extract” (priority 2012, dated 2013).

For the assay, the system named is human small cell lung cancer (SW1271 cell line). Briefly: […]-GLO luminescent cell viability assay. It is filed as cell-based.

Where a name gives a salt, the structure may show the parent alone.

The compound `CCc1c2c(nc3ccc(OC(=O)N4CCC(N5CCCCC5)CC4)cc13)-c1cc3c(c(=O)n1C2)COC(=O)[C@]3(O)CC` [irinotecan, Irinotecan hydrochloride] came in with a concentration for half-maximal inhibition (IC50) (Homo sapiens, SW1271, 120 h) of 5.81 µg/mL.

For the compound `N.N.O=C([O-])C1(C(=O)[O-])CCC1.[Pt+2]` [carboplatin, cis-Diamine [1,1-cyclobutanedicarboxylato]platinum II], where the note is “in combination with LSE vs carboplatin alone”, the “decline in IC50 value of carboplatin” value is reported as 65%. The 50% inhibitory concentration (IC50) (positive controls alone, 5 days incubation) was 18.754 µg/mL.

By IC50 is commonly meant the midpoint of a concentration-inhibition curve.
